{"source": "PubChem BioAssay AID504333", "about": "(National Center for Advancing Translational Sciences (NCATS), 2011)", "note": "Among all 360,000 compounds or so, about 16,000 (4.4%) were called active. This list was built around the results that the source calls inconclusive (neither active nor inactive); the mix of calls is not that of the screen. The call rests on the fitted dose curve; in most records, active means well fitted inhibition curve with a large enough effect; inconclusive means small, poorly fitted or top-dose-only effect; inactive means no such curve, though single readings can be large or run the other way. Potencies of inconclusive entries are doubtful fits and often do not repeat. Potency means the concentration at half of the fitted maximal effect; tags describe the fitted curve by direction and shape.", "data": [{"target": "Bromodomain adjacent to zinc finger domain protein 2B (Homo sapiens) (UniProt Q9UIF8)", "sequence (Q9UIF8 whole entry, looked up, the tested form may be a part)": "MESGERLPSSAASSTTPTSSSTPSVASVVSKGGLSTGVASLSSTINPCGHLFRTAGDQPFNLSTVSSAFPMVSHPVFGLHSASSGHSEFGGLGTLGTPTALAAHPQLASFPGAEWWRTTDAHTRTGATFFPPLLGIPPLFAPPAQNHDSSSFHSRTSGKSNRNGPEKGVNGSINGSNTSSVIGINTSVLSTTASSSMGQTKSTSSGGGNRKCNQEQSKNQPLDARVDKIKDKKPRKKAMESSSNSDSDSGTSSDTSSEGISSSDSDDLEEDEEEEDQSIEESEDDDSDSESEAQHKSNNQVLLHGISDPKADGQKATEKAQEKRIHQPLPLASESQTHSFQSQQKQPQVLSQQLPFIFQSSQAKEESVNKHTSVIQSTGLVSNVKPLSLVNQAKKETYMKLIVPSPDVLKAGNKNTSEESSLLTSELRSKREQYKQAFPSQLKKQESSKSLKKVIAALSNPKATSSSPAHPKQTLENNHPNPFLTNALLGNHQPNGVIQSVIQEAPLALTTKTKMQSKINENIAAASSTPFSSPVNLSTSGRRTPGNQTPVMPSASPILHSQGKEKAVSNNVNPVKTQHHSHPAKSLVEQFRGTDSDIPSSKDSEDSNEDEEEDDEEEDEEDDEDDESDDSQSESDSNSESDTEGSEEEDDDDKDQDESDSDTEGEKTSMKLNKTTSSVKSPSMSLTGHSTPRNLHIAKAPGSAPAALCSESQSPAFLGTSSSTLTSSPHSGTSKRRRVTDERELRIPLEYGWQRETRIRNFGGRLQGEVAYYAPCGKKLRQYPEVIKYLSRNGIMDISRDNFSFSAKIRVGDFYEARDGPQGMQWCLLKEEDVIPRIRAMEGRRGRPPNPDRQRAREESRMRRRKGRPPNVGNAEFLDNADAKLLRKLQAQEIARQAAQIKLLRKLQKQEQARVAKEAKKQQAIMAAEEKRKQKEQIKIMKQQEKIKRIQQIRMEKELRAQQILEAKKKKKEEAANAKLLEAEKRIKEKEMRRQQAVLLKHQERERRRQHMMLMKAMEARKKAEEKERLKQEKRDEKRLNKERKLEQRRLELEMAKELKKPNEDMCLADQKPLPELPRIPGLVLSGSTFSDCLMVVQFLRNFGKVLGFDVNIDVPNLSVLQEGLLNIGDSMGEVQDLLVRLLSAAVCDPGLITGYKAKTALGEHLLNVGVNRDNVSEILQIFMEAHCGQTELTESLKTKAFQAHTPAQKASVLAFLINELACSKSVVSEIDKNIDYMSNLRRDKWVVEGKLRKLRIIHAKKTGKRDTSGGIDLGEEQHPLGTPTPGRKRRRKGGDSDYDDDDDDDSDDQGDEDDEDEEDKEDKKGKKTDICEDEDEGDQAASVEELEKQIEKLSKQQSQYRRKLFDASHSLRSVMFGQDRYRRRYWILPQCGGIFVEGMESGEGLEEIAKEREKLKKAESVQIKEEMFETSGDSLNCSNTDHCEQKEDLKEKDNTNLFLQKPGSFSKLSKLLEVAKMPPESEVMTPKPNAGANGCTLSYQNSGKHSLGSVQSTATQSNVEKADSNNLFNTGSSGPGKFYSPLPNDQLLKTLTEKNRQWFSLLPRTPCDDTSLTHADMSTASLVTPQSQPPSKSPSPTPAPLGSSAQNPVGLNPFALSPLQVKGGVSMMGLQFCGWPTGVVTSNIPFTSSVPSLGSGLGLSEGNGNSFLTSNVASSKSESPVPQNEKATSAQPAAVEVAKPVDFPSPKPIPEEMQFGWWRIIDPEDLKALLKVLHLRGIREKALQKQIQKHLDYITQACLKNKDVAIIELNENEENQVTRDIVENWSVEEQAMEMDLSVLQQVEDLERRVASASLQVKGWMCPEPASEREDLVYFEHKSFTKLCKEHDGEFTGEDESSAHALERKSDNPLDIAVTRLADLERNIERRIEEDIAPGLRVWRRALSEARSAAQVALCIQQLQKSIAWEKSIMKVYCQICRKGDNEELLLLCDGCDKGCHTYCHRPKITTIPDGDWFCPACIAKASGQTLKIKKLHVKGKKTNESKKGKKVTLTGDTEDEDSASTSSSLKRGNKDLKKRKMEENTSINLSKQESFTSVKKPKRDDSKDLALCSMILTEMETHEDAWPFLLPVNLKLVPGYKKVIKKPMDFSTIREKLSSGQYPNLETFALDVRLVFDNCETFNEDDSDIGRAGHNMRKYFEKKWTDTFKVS", "assay": "qHTS Assay for Inhibitors of BAZ2B; further: nearly all actives have a fitted effect of over 60% in size", "conditions": "AlphaScreen BAZ2B-H3K14Ac peptide displacement; series mostly up to 114 µM", "procedure,_shortened": "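Protein-peptide AlphaScreen: BAZ2B 50 nM, b-H3K14Ac 50 nM, 1x PBS pH 7.4 + 0.01% Tween-20. Preincubation 30 min RT; cpd 30 min RT (top 110 uM); beads 20 min RT, light-protected.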", "values": [{"smiles": "CN(C(=O)c1ccc2c(c1)C(=O)N(CCC1=CCCCC1)C2=O)C1CCCCC1", "Potency": "inactive"}, {"smiles": "O=C(NCCCOc1cccc(CN2CCCCC2)c1)c1ccc(Cl)c(Cl)c1", "Potency": "inconclusive: 79.4 µM [inhibitor, single point]"}, {"smiles": "O=C(Cn1c(=O)nc(-c2ccccc2)c2ccccc21)Nc1ccc(Cl)cc1F", "Potency": "inactive"}, {"smiles": "CN(c1ccccc1)S(=O)(=O)c1cccc(C(=O)Nc2ccc(N3CCOCC3)cc2)c1", "Potency": "inconclusive: 50.1 µM [inhibitor, partial curve]"}, {"smiles": "CC(C)N1CCN(Cc2ccc(OCc3ccccc3)cc2)CC1CCO", "note": "(stereo not given)", "Potency": "inactive"}, {"smiles": "CCOc1ccc2[nH]c(=O)c(CN(CC3COCCO3)C(=O)c3ccco3)cc2c1", "note": "(stereo not given)", "Potency": "inconclusive: 25.1 µM [inhibitor, partial curve, poor fit]"}, {"smiles": "CCc1ccc(Nc2nc3ccccc3nc2NS(=O)(=O)c2ccccc2)cc1", "Potency": "inactive"}, {"smiles": "O=C(COC(=O)Cc1ccc(S(=O)(=O)N2CCOCC2)s1)NCc1ccccc1", "Potency": "inactive"}, {"smiles": "Cc1ccc(NC(=O)CCC(=O)NNC(=S)Nc2ccc(F)cc2)c(C)c1", "Potency": "inconclusive: 31.6 µM [inhibitor, single point]"}, {"smiles": "CC(=O)NC12CC3CC(C1)CC(C(=O)N1CCN(S(=O)(=O)c4ccc(C(C)C)cc4)CC1)(C3)C2", "Potency": "inactive"}, {"smiles": "O=C(Nc1cccc2ccccc12)C(=O)C1C(=O)Nc2ccccc21", "note": "(stereo not given)", "Potency": "inconclusive: 79.4 µM [inhibitor, single point]"}, {"smiles": "CC1CCN(C(=O)CSc2nc(-c3ccc(F)cc3)cc(C(F)(F)F)n2)CC1", "Potency": "inconclusive: 89.1 µM [inhibitor, single point]"}, {"smiles": "CCOc1ccc2ncc(C(=O)c3ccc(OC)cc3)c(N3CCN(CC)CC3)c2c1", "Potency": "inconclusive: 89.1 µM [inhibitor, single point]"}, {"smiles": "O=C1CC(Sc2nnc(-c3ccccc3O)o2)C(=O)N1c1ccccc1", "note": "(stereo not given)", "Potency": "inconclusive: 89.1 µM [inhibitor, single point]"}, {"smiles": "COc1ccc2ccccc2c1CN1CCSCC1", "Potency": "active: 56.2 µM"}, {"smiles": "O=S(=O)(c1ccc(NC(=S)N/N=C/c2c3ccccc3cc3ccccc23)cc1)N1CCOCC1", "Potency": "inactive"}, {"smiles": "CN(C)C(=O)c1ccc(NC(=O)c2ccc(-c3ccc(Cl)cc3)o2)cc1", "Potency": "inconclusive: 79.4 µM [inhibitor, single point]"}, {"smiles": "Cc1ccc2c(C(=O)CNc3nncs3)c(C)[nH]c2c1", "Potency": "inconclusive: 70.8 µM [inhibitor, single point]"}, {"smiles": "Cc1ccc(NC(=O)CN(C)C2CCCCC2)cc1Br", "Potency": "active: 50.1 µM"}, {"smiles": "OCCN(CCO)c1ncnc2c1sc1nc(N3CCOCC3)c3c(c12)CCCC3", "Potency": "inactive"}]}]}
